Screen size: about 48,000 compounds; about 550 (1.1%) were called active. Roughly 4% stayed inconclusive and do not appear here. No stated cut-off is given here; in the data, active means potency below about 15 µM; inconclusive means mostly about 16 µM to 33 µM; inactive means weaker than that. This is one part of the list.
molecular target: Lysosomal acid glucosylceramidase (Homo sapiens) (UniProt P04062); assay: Glucocerebrosidase; settings: purified enzyme, resorufin glucoside fluorescence (screen aimed at inhibitors), 20 min;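 further: the screen sought inhibitors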
Method in brief: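 Compounds titrated against 0.2 nM normal enzyme, 30 uM resorufin beta-D-glucopyranoside substrate, citrate/phosphate buffer with taurocholate and tween-20, pH 5.9. Reaction ran 20 min at room temperature; fluorescence (Ex 548/Em 600) gave AC50.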
Potency means the concentration at half of the fitted maximal effect.

Sequence of UniProt P04062 (P04062 whole entry, looked up): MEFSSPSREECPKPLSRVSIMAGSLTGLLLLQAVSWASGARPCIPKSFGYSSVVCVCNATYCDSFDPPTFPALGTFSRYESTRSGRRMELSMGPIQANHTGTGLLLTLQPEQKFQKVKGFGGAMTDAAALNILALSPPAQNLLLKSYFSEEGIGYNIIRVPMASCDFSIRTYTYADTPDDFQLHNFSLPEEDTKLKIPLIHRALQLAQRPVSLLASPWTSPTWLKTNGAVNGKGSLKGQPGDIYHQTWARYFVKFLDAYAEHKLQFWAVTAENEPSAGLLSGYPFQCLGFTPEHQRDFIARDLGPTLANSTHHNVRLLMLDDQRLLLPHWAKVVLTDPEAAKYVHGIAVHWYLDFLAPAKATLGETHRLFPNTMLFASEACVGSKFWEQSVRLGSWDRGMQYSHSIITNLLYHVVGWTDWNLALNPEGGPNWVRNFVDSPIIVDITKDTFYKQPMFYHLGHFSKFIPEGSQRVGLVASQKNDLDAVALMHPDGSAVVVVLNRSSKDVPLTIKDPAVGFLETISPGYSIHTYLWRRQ

Row | SMILES | Potency
1 | CCOC(=O)c1cccc(NC(=O)CN(C)S(=O)(=O)c2cnc[nH]2)c1 | inactive: > 76.9 µM
2 | CCN1c2ccccc2-c2nc3ccccc3n2C1c1ccncc1 (centres undefined) | inactive: > 76.9 µM
3 | CCCc1cc(N2CCCC2)n2nc(C)c(-c3ccccc3)c2n1 | inactive: > 76.9 µM
4 | CCCNC(=O)c1c(C)cc(=O)oc1C | inactive: > 76.9 µM
5 | Cc1ccc(N2C(=O)c3n[nH]c(C)c3C2c2ccccn2)cc1 (centres undefined) | inactive: > 76.9 µM
6 | Cc1cccn2c(=O)c3cc(C(=O)NCCN4CCOCC4)n(Cc4ccccc4)c3nc12 | inactive: > 76.9 µM
7 | Cc1nc2scc(-c3ccccc3)c2c(=O)n1/N=C/c1ccco1 | inactive: > 76.9 µM
8 | Cc1noc(C)c1C(=O)OCC(=O)NCCc1ccc(Cl)cc1 | inactive: > 76.9 µM
9 | O=C(Nc1ccccc1C(F)(F)F)N1CCCCCC1 | inactive: > 76.9 µM
10 | COc1cccc(NC(=O)Cn2nnc(-c3ccccc3N)n2)c1 | inactive: > 76.9 µM
11 | CC(C)C(NC(=O)OCc1ccccc1)C(=O)OCC(=O)N1CCCCC1 (centres undefined) | inactive: > 76.9 µM
12 | CC(C)COC(=O)C1[C@H]2C(=O)N(Cc3cccs3)C[C@]23C=C[C@H]1O3 (some centres undefined) | inactive: > 76.9 µM
13 | O=C(CSc1nc2scc(-c3ccco3)c2c(=O)n1-c1ccccc1)NCC1CCCO1 (centres undefined) | inactive: > 76.9 µM
14 | CC(NC(=O)c1cc2ccccc2o1)c1cccs1 (centres undefined) | inactive: > 76.9 µM
15 | O=C(Nc1nc2ccccc2[nH]1)c1ccc(F)cc1 | inactive: > 76.9 µM
16 | CCOC(=O)CC(=O)CSc1nc2ccc(C)cc2cc1C#N | active: 12.7 µM
17 | Cc1c(C(=O)N2CCN(C)CC2)oc2c1C(=O)CC(C)(C)C2 | inactive: > 76.9 µM
18 | CCOC(=O)c1cnc(-n2nc(C)cc2C)nc1N(CC)CC | inactive: > 76.9 µM
19 | O=S(=O)(c1cccs1)N1CN(CC2CCCO2)c2nc3ccccc3nc21 (centres undefined) | inactive: > 76.9 µM
20 | OC(CNCC1CCCO1)Cn1c2ccccc2c2ccccc21 (centres undefined) | inactive: > 76.9 µM

Row | SMILES | Potency
21 | C=C(C)c1cccc(C(C)(C)NC(=O)N2CCCC(C(N)=O)C2)c1 (centres undefined) | inactive: > 76.9 µM
22 | Cn1cccc1C(=O)OCC(=O)Nc1ccc2c(c1)CCC2 | inactive: > 76.9 µM
23 | O=C(NC1CCN(C(=O)Nc2ccccc2)CC1)C1CCCCC1 | inactive: > 76.9 µM
24 | Cc1ccc2c(CC(=O)Nc3c(C)n(C)n(-c4ccccc4)c3=O)coc2c1 | inactive: > 76.9 µM
25 | Cn1nnnc1SCc1ccccc1F | inactive: > 76.9 µM
26 | CC(C)c1cc(C(N)=O)c(NC(=O)C2CCC2)s1 | inactive: > 76.9 µM
27 | CS(=O)(=O)N1CCC(C(=O)Nc2ccc(OCc3ccccc3)cc2)CC1 | inactive: > 76.9 µM
28 | O=C(Nc1ccc(-c2nnc(-c3ccccc3)o2)cc1)c1ccc(Br)o1 | inactive: > 76.9 µM
29 | CC(=O)Nc1sc2c(c1C#N)CC(C)(C)NC2(C)C | inactive: > 76.9 µM
30 | COc1cc(OC)c(S(=O)(=O)NCc2ccco2)cc1S(=O)(=O)NCc1ccco1 | inactive: > 76.9 µM
31 | O=c1oc2c(CN3CCCCCC3)c(O)ccc2cc1-c1nc2ccccc2[nH]1 | inactive: > 76.9 µM
32 | O=C(Nc1c(-c2ccccc2)nc2ccccn12)c1ccco1 | inactive: > 76.9 µM
33 | CC(=O)N1CN(C2CCS(=O)(=O)C2)Cc2c1sc1c2CCCC1 (centres undefined) | inactive: > 76.9 µM
34 | O=S(=O)(c1cnc[nH]1)N1CCc2ccccc21 | inactive: > 76.9 µM
35 | C/C=C/c1ccc(OCCN2C(=O)NC(C)(C)C2=O)c(OC)c1 | inactive: > 76.9 µM
36 | CCOC(=O)c1oc2ccccc2c1NC(=O)c1cc(OC)cc(OC)c1 | inactive: > 76.9 µM
37 | COC(=O)C1=C(C(=O)c2ccccc2)C(c2ccc(O)c(OC)c2)n2nnnc2N1 (centres undefined) | inactive
38 | N#Cc1nc(-c2ccco2)oc1NCCc1ccccc1 | inactive: > 76.9 µM
39 | c1cncc(C2Nc3ccccc3-c3nc4ccccc4n32)c1 (centres undefined) | inactive: > 76.9 µM
40 | CCOC(=O)c1cc2sccc2n1CC(=O)Nc1ccc2c(c1)OCCO2 | inactive: > 76.9 µM

Row | SMILES | Potency
41 | CCN(CC)C(=O)C(C)N(C#N)c1nc(SC)nc(N(C)C)n1 (centres undefined) | inactive: > 76.9 µM
42 | Cc1cc(S(=O)(=O)NCCN(C)C)c(C)s1 | inactive: > 76.9 µM
43 | CC(C)C(=O)N(Cc1cc2ccccc2[nH]c1=O)C(C)C | inactive: > 76.9 µM
44 | O=S(=O)(c1ccccc1)c1nc(-c2ccco2)oc1NCCCn1ccnc1 | inactive: > 76.9 µM
45 | CCOC(=O)N1CCN(C(=O)CN(c2ccc(C)cc2)S(=O)(=O)c2c(C)noc2C)CC1 | inactive: > 76.9 µM
46 | O=C(N1CCOCC1)N1c2ccccc2CC(N2CCOCC2)c2ccccc21 (centres undefined) | inactive: > 76.9 µM
47 | O=C(CN(C(=O)CCC(=O)Nc1nccs1)c1ccccc1F)NCC1CCCO1 (centres undefined) | inactive: > 76.9 µM
48 | COc1ccc(C(=O)Nc2nc(C)c(C(=O)N(C)C)s2)cc1OC | inactive: > 76.9 µM
49 | Cc1cccc2nc(=S)n(C(=O)c3ccco3)n12 | inactive: > 76.9 µM
50 | Cc1cc(NC(=O)CSc2nc3c(c(=O)n2-c2ccc(Br)cc2)SCC3)no1 | inactive: > 76.9 µM
51 | CCC(=O)Nc1cccc(NC(=O)c2ccc3c(c2)OCCO3)c1 | inactive: > 76.9 µM
52 | CCOc1ccc2nc3c(cc2c1)CN(CCCO)C(=NCCOC)S3 | inactive: > 76.9 µM
53 | COC(=O)c1ccc(COC(=O)c2c(C)nn(Cc3ccccc3Cl)c2Cl)o1 | inactive: > 76.9 µM
54 | O=C(C1CC1)N1CCc2cc(S(=O)(=O)NCCC3=CCCCC3)ccc21 | inactive: > 76.9 µM
55 | CCCOc1ccc(C(=O)N2CCN(c3ccc(N)cc3Cl)CC2)cc1 | inactive: > 76.9 µM
56 | CCc1ccc2c(c1)c1nc(C)sc1n2CC | inactive: > 76.9 µM
57 | C=CCN(CC=C)C(=O)Nc1cc(Cl)ccc1OC | inactive: > 76.9 µM
58 | CC(C)c1nc2oc3c(N4CCN(C)CC4)ncnc3c2c2c1CCC2 | active: 8.51 µM
59 | COc1ccc(CCNC(=O)C2CCN(C(=O)N(C)C)CC2)cc1OC | inactive: > 76.9 µM
